Measured values published in PubChem BioAssay AID504832 (National Center for Advancing Translational Sciences (NCATS), 2011).
Among all 310,000 compounds or so, about 18,000 (5.8%) were called active. The shares of active, inactive and inconclusive entries below differ from those in the screen. The call rests on the fitted dose curve; in most records, active means well fitted inhibition curve with a large enough effect; inconclusive means small, poorly fitted or top-dose-only effect, or another doubt; inactive means no such curve, though single readings can be large or run the other way. No potency is given beside an inconclusive call; the fits are too rough.

test: Primary qHTS for delayed death inhibitors of the malarial parasite plastid, 48 hour incubation; conditions: P. falciparum luciferase growth in erythrocytes; series mostly up to 28.7 µM; activity change, negative = inhibition: at the top concentration
Procedure, shortened: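 Read-out is firefly luciferase luminescence from an integrated reporter in P. falciparum, so falling signal marks reduced parasite growth. Infected erythrocytes were at 2% hematocrit and 0.1% parasitemia (final) in Albumax-supplemented RPMI 1640.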
On the % scale 0 is the no-effect control and ±100 the full control effect; potency means the concentration at half of the fitted maximal effect; tags describe the fitted curve by direction and shape.

| Compound | Potency | activity change, negative = inhibition |
| --- | --- | --- |
| CCC(C)n1c(O)c(C=NC(C)c2ccccc2)c(=O)[nH]c1=S (configuration not stated) | inconclusive [inhibitor, single point] | – |
| CCOc1ccc(NC(=O)CN2CCN(C3c4ccccc4-c4ccccc43)CC2)cc1 | active: 13.1 µM | – |
| O=C(c1nc2ccccn2c1CNCC1OCCc2ccccc21)N1CCOCC1 (configuration not stated) | – | inactive: 11.9% |
| CNC(=O)NC(=O)COC(=O)c1ccccc1OCc1ccccc1 | inconclusive [inhibitor, single point] | – |
| O=C(c1ccc(NS(=O)(=O)c2ccc3[nH]c(=O)[nH]c3c2)cc1)N1CCN(c2ccccc2)CC1 | inconclusive [inhibitor, single point] | – |
| COc1cccc(/C=N/Nc2cc(Cl)nc(C)n2)c1O | inconclusive [inhibitor, single point] | – |
| O=c1[nH]c(=O)n(CCC2=CCCCC2)c(O)c1/C=N/Nc1cccc2ccccc12 | inconclusive [inhibitor, single point] | – |
| O=C(CSc1nnc2ccccn12)N1CCc2ccccc21 | – | inactive: 218% |
| CC(C)C[C@H](NC(=O)[C@@H]1Cc2c([nH]c3ccccc23)C2c3ccccc3C(=O)N21)C(=O)N1CCC[C@@H]1C(=O)O (some centres not stated) | inconclusive [inhibitor, single point] | – |
| Cc1ccc(NC(=O)CCNS(=O)(=O)c2ccccc2F)cc1S(=O)(=O)N1CCOCC1 | inconclusive [inhibitor, single point] | – |
| COc1ccc(C/C(N)=N/OC(=O)C(c2ccccc2)c2ccccc2)cc1OC | inconclusive [inhibitor, partial curve] | – |
| Cc1ccc(N2CC(C)Cn3c2nc2c3c(=O)n(CC(=O)OCc3ccccc3)c(=O)n2C)cc1C (configuration not stated) | inconclusive [inhibitor, full curve] | – |
| CC(=O)c1cccc(NC(=S)NCCc2ccc(F)cc2)c1 | – | inactive: 1.38% |
| COCCn1c(SCC(=O)c2c(-c3ccccc3)n(C)c3ccccc23)nnc1-c1ccncc1 | inconclusive [inhibitor, single point] | – |
| COc1ccc(OC2CCN(S(=O)(=O)c3ccc(F)cc3)CC2)cc1 | – | inactive: -19.9% |
| COc1ccc(-c2cc(C(=O)N3CCN(c4ccccn4)CC3)c3ccccc3n2)cc1 | – | inactive: 69.9% |
| CC(=O)Nc1cccc(OCCCNS(=O)(=O)c2ccc(C#N)cc2)c1 | inconclusive [inhibitor, full curve, poor fit] | – |
| C=CCN(c1ccccc1OC)S(=O)(=O)c1ccc(Cl)c(C(=O)Nc2ccc(N3CCOCC3)cc2)c1 | active: 5.86 µM | – |
| COc1ccc(C(C(=O)NC2CCCCC2)N(C(=O)Cc2c[nH]c3ccccc23)c2ccc(NC(C)=O)cc2)cc1OC (configuration not stated) | active: 10.4 µM | – |
| CCCc1[nH][nH]c(=O)c1C(c1ccccc1)C(C#N)C#N (configuration not stated) | – | inactive: 4.97% |
| Cc1cccc(C)c1OCC(O)CNC(C)(C)C (configuration not stated) | – | inactive: -0.842% |

| Compound | Potency | activity change, negative = inhibition |
| --- | --- | --- |
| Oc1ccc(Oc2ccc3c(C(F)(F)F)cc(C(F)(F)F)nc3n2)cc1 | inconclusive [inhibitor, single point] | – |
| N=C1C(c2nc3ccccc3s2)=C(O)CN1NC(=O)c1c[nH]c2ccccc12 | – | inactive: 1.04% |
| COc1ccc(Cl)cc1NC(=O)CN(C)C(=O)c1ccc2c(c1)CC(c1ccccc1)OC2=O (configuration not stated) | inconclusive [inhibitor, single point] | – |
| CCN1CCN(c2ccc(S(=O)(=O)N3CCOCC3)cc2NC(=O)CCSC)CC1 | inconclusive [inhibitor, single point] | – |
| CCN(CCCNC(=O)c1ccc(N2CCCC2=O)cc1)c1cccc(C)c1 | inconclusive [inhibitor, full curve, poor fit] | – |
| O=C(COC(=O)c1c2c(nc3ccccc13)CCCC2)Nc1ccc2c(c1)OCO2 | inconclusive [inhibitor, partial curve, poor fit] | – |
| Cc1ccc(CNC(=O)c2nnn(CC(=O)Nc3cccc(C)c3C)c2N)cc1 | – | inactive: 7.45% |
| O=C1CN(C(=O)CC2C(=O)NCCN2Cc2ccccc2C(F)(F)F)CCN1 (configuration not stated) | – | inactive: 5.97% |
| COc1ccc(NC(=O)CN2C(=O)CSc3ccc(S(=O)(=O)N4CCCC4)cc32)cc1OC | inconclusive [inhibitor, partial curve, poor fit] | – |
| CCCCn1c(SCC(=O)N2c3ccccc3Sc3ccccc32)nc2c1c(=O)n(C)c(=O)n2C | active: 1.65 µM | – |
| c1cncc(C(c2nnnn2C2CCCC2)N2CCN(Cc3ccc4c(c3)OCO4)CC2)c1 (configuration not stated) | inconclusive [inhibitor, partial curve, poor fit] | – |
| Cc1ccc(C)c(N2CCN(S(=O)(=O)c3ccc4c(c3)oc(=O)n4C)CC2)c1 | inconclusive [inhibitor, full curve, poor fit] | – |
| COc1ccc(C(=O)C2CCCN(Cc3cccc(C)n3)C2)c(OC)c1 (configuration not stated) | active: 1.47 µM | – |
| CC(C)C[C@H](NC(=O)N1CCn2c1nc1ccccc12)C(=O)NCc1ccc2c(c1)OCO2 | inconclusive [inhibitor, partial curve, poor fit] | – |
| COc1ccccc1NC(=O)N1CCC(c2nc3cc(C)c(C)cc3[nH]2)CC1 | inconclusive [inhibitor, partial curve, poor fit] | – |
| CCOC(=O)Cn1c(=O)n(C2CCCC2)c(=O)c2ccccc21 | inconclusive [inhibitor, partial curve, poor fit] | – |
| CCCCC(=O)N1CCN(c2nc3ccc(OCC)cc3s2)CC1 | inconclusive [inhibitor, partial curve, poor fit] | – |
| CCCc1cc(=O)[nH]c(SCC(=O)Nc2sc3c(c2C#N)CCCC3)n1 | inconclusive [inhibitor, partial curve, poor fit] | – |
| O=C(CNc1cccc(S(=O)(=O)N2CCCC2)c1)Nc1ccc(F)c(F)c1 | active: 1.47 µM | – |
| COC(=O)c1ccc(SCC(=O)NC2CCCCC2)c([N+](=O)[O-])c1 | – | inactive: -1.01% |
| COC(=O)c1c(NC(=S)NN2CCOCC2)sc2c1CCCC2 | inconclusive [inhibitor, partial curve] | – |
